# Data reported in PubChem BioAssay AID720708 (National Center for Advancing Translational Sciences (NCATS), 2013).
# The campaign covered roughly 360,000 compounds. About 660 (0.18%) were called active. The inconclusive results got no clear call from the source; some entries with a clear call stand among them for comparison. The call rests on the fitted dose curve; in most records, active means well fitted inhibition curve with a large enough effect; inconclusive means small, poorly fitted or top-dose-only effect; inactive means no such curve, though single readings can be large or run the other way. No potency is given beside an inconclusive call; the fits are too rough.
# Molecular target: Rap guanine nucleotide exchange factor 4 (Homo sapiens) (UniProt Q8WZA2)
# Sequence of UniProt Q8WZA2 (Q8WZA2 whole entry, looked up): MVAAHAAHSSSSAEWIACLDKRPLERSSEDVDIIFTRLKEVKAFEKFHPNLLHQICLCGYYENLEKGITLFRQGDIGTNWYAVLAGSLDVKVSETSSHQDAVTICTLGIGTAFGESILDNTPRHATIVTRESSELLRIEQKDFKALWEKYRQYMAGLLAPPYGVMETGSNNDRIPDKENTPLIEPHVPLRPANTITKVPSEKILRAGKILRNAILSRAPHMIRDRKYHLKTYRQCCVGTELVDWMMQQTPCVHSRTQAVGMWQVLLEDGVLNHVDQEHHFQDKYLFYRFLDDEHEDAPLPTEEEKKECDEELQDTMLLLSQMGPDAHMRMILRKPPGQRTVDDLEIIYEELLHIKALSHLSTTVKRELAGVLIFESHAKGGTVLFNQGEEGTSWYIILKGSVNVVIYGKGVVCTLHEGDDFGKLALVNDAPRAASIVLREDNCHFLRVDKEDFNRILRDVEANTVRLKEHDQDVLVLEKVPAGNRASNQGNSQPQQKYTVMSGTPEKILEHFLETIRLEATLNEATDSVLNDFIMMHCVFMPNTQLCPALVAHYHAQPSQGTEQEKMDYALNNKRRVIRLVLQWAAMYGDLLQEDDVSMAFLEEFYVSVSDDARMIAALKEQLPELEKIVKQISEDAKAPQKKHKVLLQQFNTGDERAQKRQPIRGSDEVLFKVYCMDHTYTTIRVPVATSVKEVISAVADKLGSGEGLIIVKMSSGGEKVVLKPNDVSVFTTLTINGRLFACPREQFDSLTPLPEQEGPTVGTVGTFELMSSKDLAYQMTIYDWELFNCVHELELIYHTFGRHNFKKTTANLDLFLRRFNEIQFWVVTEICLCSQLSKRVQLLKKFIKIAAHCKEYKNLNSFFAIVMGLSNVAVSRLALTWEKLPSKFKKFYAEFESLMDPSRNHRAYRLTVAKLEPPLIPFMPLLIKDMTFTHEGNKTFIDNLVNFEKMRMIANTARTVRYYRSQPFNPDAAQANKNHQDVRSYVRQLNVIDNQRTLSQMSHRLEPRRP
# Test: qHTS for Antagonist of cAMP-regulated guanine nucleotide exchange factor 2 (EPAC2): primary screen; further: nearly all actives have a fitted effect of over 45% in size
# Conditions: EPAC2 GEF exchange of Rap1B-BODIPY-GDP, fluorescence; series mostly up to 114 µM
# Potency means the concentration at half of the fitted maximal effect; tags describe the fitted curve by direction and shape.
row,SMILES,Potency
1,CC1=Nc2ccccc2/C1=C/c1sc(=S)n(-c2cccc(C(=O)O)c2)c1O,"inconclusive [inhibitor, partial curve]"
2,O=C(O)C(c1ccccc1)N1C(=O)/C(=C\c2ccc(O)c(O)c2)SC1=S (configuration not stated),active: 22.4 µM
3,CC(=O)OCC(OC(C)=O)C(OC(C)=O)C(OC(C)=O)C(=O)Nc1ccccc1 (configuration not stated),"inconclusive [inhibitor, single point]"
4,Cc1ccc(CN(CC(O)COc2cccc3[nH]cc(C)c23)C(C)(C)C)cc1 (configuration not stated),"inconclusive [inhibitor, partial curve]"
5,O=C1C2CCCN2C(c2ccccc2)N1c1cccc(Cl)c1 (configuration not stated),"inconclusive [inhibitor, partial curve]"
6,COc1cc(OC)cc(C(=O)NCC(=O)Nc2ccc(OC)c(Cl)c2)c1,"inconclusive [inhibitor, single point]"
7,C=CCn1c(SCC(=O)NCCCC(=O)OCC)nc2scc(-c3ccco3)c2c1=O,"inconclusive [inhibitor, single point]"
8,CCOC(=O)c1c(N)sc(C(O)(C(F)(F)F)C(F)(F)F)c1-c1ccc(Cl)cc1,"inconclusive [inhibitor, partial curve, poor fit]"
9,CC(C)(C)[C@H](N)C(=O)N[C@H]1CCC2C3CC=C4C[C@@H](O)CC[C@]4(C)C3CC[C@@]21C (some centres not stated),"inconclusive [inhibitor, partial curve]"
10,COc1cc(C(=O)O[C@H]2C/C(C)=C/CC[C@@]3(C)O[C@@H]3[C@H](O)[C@@H]2C(C)C)cc(OC)c1OC,"inconclusive [inhibitor, single point]"
11,COc1cc(C[C@@H](C)[C@@H](C)Cc2ccc(O)c(OC)c2)ccc1O,"inconclusive [inhibitor, partial curve]"
12,CC(/C=C1\SC(=S)N(CCCC(=O)Nc2ccc(C(=O)O)c(O)c2)C1=O)=C\c1ccccc1,"inconclusive [inhibitor, single point]"
13,S=c1[nH]c(-c2ccccc2)cn1/N=C/c1ccc(Br)cc1,inactive
14,Cc1ccc(CN2CCN(C(=O)C3CCCO3)CC2)cc1 (configuration not stated),inactive
15,CC(C)(C)c1ccc(C(=O)NC(=S)NCC2CCCO2)cc1 (configuration not stated),inactive
16,O=C1/C(=C/c2ccccn2)SC(=S)N1CCc1ccccc1,"inconclusive [inhibitor, single point]"
17,CC1(C(=O)Nc2cccc3cccnc23)CCN1Cc1ccccc1OC(F)F (configuration not stated),inactive
18,CC(=O)NC1=NC(=O)C(C)S1 (configuration not stated),"inconclusive [inhibitor, partial curve, poor fit]"
19,CCc1nc2ccc(C(=O)N3CCN(S(=O)(=O)CC)CC3)cn2c1N(CCC(C)C)CCN(C)C,"inconclusive [inhibitor, full curve, poor fit]"
20,CCC(=O)NC(c1cccs1)c1cc(Cl)c2cccnc2c1O (configuration not stated),"inconclusive [inhibitor, single point]"
21,COc1cc2c(c(OC)c1)C(c1cccc(OC)c1OC)CC(=O)N2 (configuration not stated),"inconclusive [inhibitor, full curve]"

row,SMILES,Potency
1,c1ccc(SCc2nc3ccccc3s2)nc1,"inconclusive [inhibitor, partial curve]"
2,O=C(Nc1nn[nH]n1)c1cc(-c2ccc(Cl)c(Cl)c2Cl)nc2ccccc12,"inconclusive [inhibitor, full curve]"
3,CCCCn1nnnc1C(c1cc2ccccc2o1)N1CCN(c2cc(C)nc3ccccc23)CC1 (configuration not stated),"inconclusive [inhibitor, full curve]"
4,COC(=O)c1ccc2nc(C3CCCCC3)c(Cc3cccc(Cl)c3)n2c1,"inconclusive [inhibitor, full curve]"
5,N=C1/C(=C\c2coc3ccc(O)cc3c2=O)C(=O)N=C2SC=CN12,inactive
6,Cc1ccc(C2CC2c2n[nH]c(=S)n2-c2cccc(C)c2)cc1 (configuration not stated),inactive
7,Cc1ccc(NC(=S)NNC(=O)C2CC2c2ccc(C)cc2)cc1 (configuration not stated),"inconclusive [inhibitor, partial curve]"
8,COc1ccc(CN(C)CC(=O)Nc2ccc(SC(F)F)cc2)cc1OC,inactive
9,C[C@@H](CSc1ccc(Br)cc1)CN1CC[C@H](C(C)(C)C)CCC1=O,"inconclusive [inhibitor, partial curve]"
10,NC(=S)NN=C1c2ccccc2-c2ccccc21,inactive
11,CCCCCCCCCCOC(=O)Cn1c(COc2ccc(Cl)cc2)[n+](C)c2ccccc21,"inconclusive [inhibitor, full curve]"
12,O=S(=O)(c1ccc(Cl)cc1Br)N1CCCCC1,"inconclusive [inhibitor, partial curve]"
13,Cc1ccc2nc(Nc3ccccc3)c(/C=N/O)c(=O)n2c1,inactive
14,COc1ccc(C2CC(O)(c3ccccc3)Oc3cc(OC)ccc32)cc1 (configuration not stated),"inconclusive [inhibitor, partial curve]"
15,O=C1C(=NO)C(c2ccccc2)Oc2ccccc21 (configuration not stated),"inconclusive [inhibitor, partial curve]"
16,COc1ccc(-c2n[nH]c(C)c2-c2ccccc2OC)c(O)c1,"inconclusive [inhibitor, partial curve]"
17,Cc1ccc(CN2C(=O)CSC2c2ccc(F)cc2)cc1 (configuration not stated),"inconclusive [inhibitor, full curve]"
18,COCOCCn1cc(CN2CCS(=O)(=O)N(Cc3ccc(-c4ccccc4)cc3)C(C(C)C)C2=O)nn1 (configuration not stated),"inconclusive [inhibitor, partial curve]"
19,C=Cn1cc(CNC[C@H]2O[C@@H](n3cnc4c(=O)[nH]c(N)nc43)[C@H](O)[C@@H]2O)c(C)n1,"inconclusive [inhibitor, single point]"
20,CCC(Oc1ccc(C)cc1)C(=O)Nc1ccc(S(=O)(=O)Nc2nccs2)cc1 (configuration not stated),"inconclusive [inhibitor, partial curve]"
21,COc1ccccc1N1CC(C(=O)Nc2nnc(SCC(=O)N3CCCC3)s2)CC1=O (configuration not stated),"inconclusive [inhibitor, single point]"
